# PubChem BioAssay (NCATS)
# Some of the results follow. These are further read-outs of the screen, such as a control signal, another cell line or another target. No call is given for them. For some assays here: Most of these compounds were active or inconclusive in the main read-out, so they are no random draw. For some assays here: Words in brackets tell the shape of the fitted curve; partial curves, single points and poor fits give uncertain potencies.
# Legend:
# [1] = qHTS drug screen for cell cycle checkpoint inhibitors in PARPi-resistant BRCA-mutant ovarian cancer cell lines. (AID 1963452); settings: PEO1/OlaR viability, CellTiter-Glo luminescence, 96 h
# How it was run: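 PEO1, PEO4 and PEO1/OlaR ovarian cancer cells, 600 per well, exposed 96 h at 37C to a dilution series. Viability read by CellTiter-Glo luminescence, normalized to DMSO and empty wells; activity summarized as Z-AUC.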
# [2] = qHTS for identification of novel therapeutic agents for treatment of microphthalmiaassociated transcription factor (MiT) renal cell carcinoma (RCC) (AID 1963991); settings: CellTiter-Glo, 48 h; for z-score: stronger effect = lower value
# How it was run: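 Three TFE3-fusion RCC cell lines (UOK109, UOK124, UOK145), 500 cells/well, were exposed to the 1912-compound MIPE 4.0 library for 48 hours at 37 C. Viability was read by CellTiter-Glo luminescence, normalised to DMSO (100%) and empty wells (0%), with 11-concentration curve fits.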
# [3] = Nrf2 qHTS screen for inhibitors: Validation (AID 493153); settings: A549 ARE-Fluc reporter, 18-24 h; AC50: CellTiter-Fluor fluorescence read, measured here: cytotoxicity CellTiter-Fluor AC50; viability change: measured here: cytotoxicity max response
# How it was run: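 A549 cells carrying an ARE-driven firefly luciferase reporter, in 5% FBS OPTI-MEM, were treated with compounds in concentration-response for 18-24 h at 37°C. Viability was read by CellTiter-Fluor fluorescence, then Nrf2 activity by luciferase luminescence.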
# [4] = qHTS assay for small molecule antagonists of androgen receptor signaling (AID 588516); settings: AR-UAS-bla HEK293, beta-lactamase ratio, antagonist mode, 16 h; measured here: W460 blue channel fit
# How it was run: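 Antagonist mode: inhibition of R1881-stimulated (10 nM final) bla reporter in GeneBLAzer AR HEK 293 cells, 16 h at 37C, compounds titrated. IC50 and efficacy from Hill-equation fits of 405/460–530 nm FRET ratios.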
# [5] = qHTS assay for small molecule antagonists of peroxisome proliferator-activated receptor delta signaling (AID 588535); settings: HEK293T PPARd-UAS-bla, beta-lactamase FRET ratio, 18 h; 460 nm channel;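 also: cells co-treated with a PPAR-delta agonist as stimulator during compound exposure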
# How it was run: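 Cells were seeded at 4000 per well in assay medium containing 2% charcoal/dextran FBS and held 5 hrs at 37 C. Compounds were then added for 18 hrs. CCF4 substrate was applied for 2 hrs at room temperature before fluorescence reading.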
# [6] = qHTS assay for small molecule antagonists of peroxisome proliferator-activated receptor gamma signaling (AID 588537); settings: HEK293 PPARg-UAS-bla, beta-lactamase ratio, antagonist mode; measured here: W460 blue channel
# How it was run: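 Step one: plate 3000 HEK293 UAS-bla cells per well in medium with 1% stripped serum and hold 6-6.5 h at 37 C. Step two: add compound and 50 nM agonist for 16 h. Step three: CCF4 loading, fluorescence read.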
# [7] = qHTS assay for small molecule agonists of retinoid X receptor alpha signaling (AID 588544); settings: HEK293T RXRa-UAS-bla, beta-lactamase reporter, 18 h; 530 nm emission
# [8] = qHTS assay for small molecule antagonists of retinoid X receptor alpha signaling (AID 588546); settings: HEK293T RXRa-UAS-bla, beta-lactamase ratio, antagonist mode; measured here: W530 green channel, cytotoxicity proxy;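 also: cells stimulated with 9-cis-retinoic acid as agonist; % is scaled to controls: 0 for no effect and ±100 for the full control effect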
# How it was run: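 Beta-lactamase reporter inhibition, read as CCF4 fluorescence ratio (ex 405, em 460/530 nm) after 2 h at RT. HEK293T UAS-bla cells, 2500/well, were stimulated with 9-cis-RA at 500 or 100 nM final alongside test compound for 18 h at 37 C.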
# [9] = measured here: PEO1 parental viability
# [10] = TFE3-RCC UOK109 viability, measured here: UOK109 Z-AUC
# [11] = TFE3-RCC viability, measured here: UOK124 Z-AUC
# [12] = TFE3-RCC viability, measured here: UOK145 Z-AUC
# [13] = TFE3-RCC viability, measured here: UOK145 cell viability
# [14] = TFE3-RCC viability, measured here: UOK124 cell viability
# Tags tell the direction and shape of the fitted curve.
smiles,measurement,setting,value
CS(=O)(=O)N(Cc1ccco1)CC(O)Cn1c2ccccc2c2ccccc21 (centres undefined),AC50,[1]; [9],"13.8 µM [falling, partial curve, poor fit]"
same,z-score,[2]; [10],0.0118
same,z-score,[2]; [11],-0.644
same,z-score,[2]; [12],-0.831
same,AC50,[2]; [13],"14.8 µM [falling, partial curve, poor fit]"
N#Cc1cc(NC(=O)Nc2nnc(-c3ccncc3)s2)ccc1-c1cn[nH]c1,AC50,[1]; [9],"0.0123 µM [rising, full curve, poor fit]"
same,z-score,[2]; [10],0.843
same,z-score,[2]; [11],0.529
same,AC50,[2]; [14],"0.00166 µM [falling, full curve, poor fit]"
same,z-score,[2]; [12],0.769
CC1(C)CCC(CN2CCN(c3ccc(C(=O)NS(=O)(=O)c4ccc(NCC5CCOCC5)c([N+](=O)[O-])c4)c(Oc4cnc5[nH]ccc5c4)c3)CC2)=C(c2ccc(Cl)cc2)C1,AC50,[1]; measured here: PEO4 viability,"15.5 µM [falling, single point]"
same,z-score,[2]; [10],0.268
same,z-score,[2]; [11],0.024
same,AC50,[2]; [14],"26.4 µM [falling, single point]"
same,z-score,[2]; [12],0.313
same,AC50,[2]; [13],"26.4 µM [falling, single point]"
CN(C)c1ccc(Nc2nc(N)n(C(=O)c3c(F)cccc3F)n2)cc1,AC50,[1]; [9],"19.5 µM [falling, single point]"
same,z-score,[2]; [10],0.0387
same,z-score,[2]; [11],-0.0326
same,AC50,[2]; [14],"20.9 µM [falling, single point]"
same,z-score,[2]; [12],-0.0249
same,AC50,[2]; [13],"13.2 µM [falling, partial curve]"
Cc1cccc(-c2[nH]c(C(C)(C)C)nc2-c2ccc3nccnc3c2)n1,viability change,[3],-12.8%
same,AC50,[1]; measured here: PEO4 viability,"24.5 µM [falling, single point]"
same,z-score,[2]; [10],1.11
same,z-score,[2]; [11],1.52
same,AC50,[2]; [14],"33.2 µM [falling, single point]"
same,z-score,[2]; [12],1.14
N[C@H](CSC(c1ccccc1)(c1ccccc1)c1ccccc1)C(=O)O,AC50,[1]; measured here: PEO4 viability,"15.5 µM [falling, partial curve, poor fit]"
same,z-score,[2]; [10],0.891
same,z-score,[2]; [11],0.171
same,AC50,[2]; [14],"4.18 µM [falling, partial curve, poor fit]"
same,z-score,[2]; [12],0.733
same,AC50,[2]; [13],"20.9 µM [falling, partial curve]"
Cc1ccc(-c2cc(C(F)(F)F)nn2-c2ccc(S(N)(=O)=O)cc2)cc1,AC50,[4],"50.1 µM [falling, partial curve, poor fit]"
same,max response,[5],164%
same,AC50,[6],"35.5 µM [falling, partial curve, poor fit]"
same,max response,[7],52.9%
same,max response,[8],26.6%
same,AC50,[1]; [9],"13.8 µM [falling, single point]"
same,z-score,[2]; [10],1.08
same,z-score,[2]; [11],0.484
same,AC50,[2]; [14],"26.4 µM [falling, single point]"
same,z-score,[2]; [12],0.71
